About 120 (0.75%) of roughly 16,000 compounds were called active. About 4% were inconclusive and are not listed. The call rests on the fitted dose curve; in most records, active means well fitted inhibition curve with a large enough effect; inconclusive means small, poorly fitted or top-dose-only effect; inactive means no such curve, though single readings can be large or run the other way. Some of the results follow.
molecular target: Rap guanine nucleotide exchange factor 3 (Homo sapiens) (UniProt O95398); assay: Validation qHTS for antagonist of cAMP-regulated guanine nucleotide exchange factor 3 (EPAC1); conditions: EPAC1 Rap1B-BODIPY-GDP exchange, fluorescence; series mostly up to 150 µM; activity change, negative = inhibition: at the top concentration;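 further: plate controls were DMSO for no effect and ATA control for full effect; nearly all actives have a fitted effect of over 75% in size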
Chain of UniProt O95398 (O95398 whole entry, looked up): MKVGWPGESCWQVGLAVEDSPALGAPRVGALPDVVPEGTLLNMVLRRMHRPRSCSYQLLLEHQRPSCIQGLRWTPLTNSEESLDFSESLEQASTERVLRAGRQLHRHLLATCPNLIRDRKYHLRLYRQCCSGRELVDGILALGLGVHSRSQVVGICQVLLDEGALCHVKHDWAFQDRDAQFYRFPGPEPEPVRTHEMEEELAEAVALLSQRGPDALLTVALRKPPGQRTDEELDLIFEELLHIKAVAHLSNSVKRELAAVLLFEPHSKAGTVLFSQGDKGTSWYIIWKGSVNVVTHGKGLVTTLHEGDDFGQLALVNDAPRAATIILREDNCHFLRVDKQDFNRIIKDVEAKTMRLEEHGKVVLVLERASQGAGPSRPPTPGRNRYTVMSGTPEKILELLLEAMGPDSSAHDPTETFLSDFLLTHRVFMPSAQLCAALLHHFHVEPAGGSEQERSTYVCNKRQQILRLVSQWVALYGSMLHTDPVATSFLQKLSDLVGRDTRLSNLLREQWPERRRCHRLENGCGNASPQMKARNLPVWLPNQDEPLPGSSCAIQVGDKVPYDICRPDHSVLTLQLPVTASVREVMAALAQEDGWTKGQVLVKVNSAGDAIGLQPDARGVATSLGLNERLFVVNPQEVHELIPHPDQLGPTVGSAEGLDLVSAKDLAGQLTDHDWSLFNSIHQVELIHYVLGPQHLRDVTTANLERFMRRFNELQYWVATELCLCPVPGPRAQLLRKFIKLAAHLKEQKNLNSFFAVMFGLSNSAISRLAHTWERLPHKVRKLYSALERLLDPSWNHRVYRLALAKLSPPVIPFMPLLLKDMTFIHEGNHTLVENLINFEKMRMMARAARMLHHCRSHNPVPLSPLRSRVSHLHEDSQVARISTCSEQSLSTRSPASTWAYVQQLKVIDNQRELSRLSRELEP
Procedure, shortened: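 EPAC1 (100 nM) mixed with 250 nM RAP1B-BODIPY-GDP and 50 uM GDP; compounds in concentration series, 5 min at room temperature. Fluorescence (ex 480/em 540 nm) read every 5 min for 30 min; normalized to ATA control and DMSO.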

| SMILES | activity change, negative = inhibition |
| --- | --- |
| CC(C)CN1CC2(CCN(C(=O)c3cnccn3)CC2)C1 | inactive: 7.55% |
| O=C(O)C1=C(CSc2nnnn2CS(=O)(=O)O)CS[C@@H]2[C@H](NC(=O)[C@H](O)c3ccccc3)C(=O)N12 | inactive: 17.1% |
| C(=C\c1nccc2ccccc12)/c1ccc(N2CCOCC2)cc1 | inactive: 13.7% |
| N#CCCn1c(=O)cnc2cnc(OCc3ccccc3)nc21 | inactive: -13.6% |
| COc1ccc(CNc2nc(-c3cccc(C#N)c3)nc3ccccc23)c(OC)c1 | inactive: -25.4% |
| Cc1sc2ccccc2[n+]1Cc1ccccc1 | inactive: 17.5% |
| CCOC(=O)CNS(=O)(=O)Cc1ccccc1 | inactive: -6.59% |
| O=C(c1ccncc1)N1CCC2(CCCN(c3ccc(-c4ccccc4)cc3)C2)CC1 | inactive: -12.3% |
| COc1ccc(Oc2ncc3nc(C)c(=O)n(CCC#N)c3n2)cc1 | inactive: 5.17% |
| CC(Oc1ccccc1)C(=O)NC1C(=O)N2C(C(=O)O)C(C)(C)S[C@@H]12 (stereo partly specified) | inactive: 21% |
| COc1ccc(-n2c(CCNC(=O)c3ccccc3C(F)(F)F)nnc2SC)cc1 | inactive: 14% |
| CN(C)c1ccc(-c2ccc3ncnc(NC4CC4)c3c2)cc1 | inactive: 19.2% |
| COc1ccccc1CNc1ncncc1-c1ccoc1 | inactive: 21.4% |
| O=C(NCCN1CCOCC1)c1cnn(-c2nccc(-c3cccs3)n2)c1C1CC1 | inactive: 8.91% |
| Cc1cnc(CNc2ccnc(-c3c(C)noc3C)n2)cn1 | inactive: -5.83% |
| CCC(=O)N[C@@H]1c2ccccc2C2(CCN(Cc3cnc(N(C)C)s3)CC2)[C@H]1OC | inactive: 15.5% |
| COc1cc2nc(N3CCN(C(=O)C4COc5ccccc5O4)CC3)nc(N)c2cc1OC (stereo unspecified) | inactive |
| CC(=O)Nc1ccc(OC(=O)c2ccccc2O)cc1 | inactive: 3.16% |
| CCNc1ncc2nc(-c3ccc(F)cc3)c(=O)n(C[C@H]3CCCO3)c2n1 | inactive: 7.47% |
| CN(C)c1ccc(-c2nc(NCCc3cnc[nH]3)c3ccccc3n2)cc1 | inactive: 6.79% |
| O=C(Nc1ccccc1)N1CCC2(CC1)CCN(C(=O)c1ccncc1)CC2 | inactive: 16.3% |
| Cc1cc(O)c2c(c1O)C(=O)c1c(O)cc(C)c(O)c1C2=O | inactive: 18.1% |
| COc1cc(=O)n2c(c1C(=O)NCc1cccc(F)c1)CCN(Cc1cccnc1)CC2 | inactive: 14.1% |
| COc1ccccc1CNc1ccnc(-c2ccoc2)n1 | inactive: 20.5% |
| COc1cc(OC)c2ccc(=O)oc2c1 | inactive: -9.96% |
| CCN(CC)C(=O)Nc1ccc(OCC(O)CNC(C)(C)C)c(C(C)=O)c1 (stereo unspecified) | inactive: 16.5% |

| SMILES | activity change, negative = inhibition |
| --- | --- |
| C=C[C@@](C)(O)CC[C@@H]1[C@@]2(C)CCCC(C)(C)[C@@H]2CC[C@@]1(C)O | inactive: -6.7% |
| O=C(CCBr)N1CCN(C(=O)CCBr)CC1 | inactive: 9.51% |
| COc1cc2c(cc1OC)C(C(C(=O)N(CCc1ccc(OC)c(OC)c1OC)CCc1ccc(OC)c(OC)c1OC)c1ccccc1)=NCC2 (stereo unspecified) | inactive: -3.13% |
| N[C@H]1CONC1=O | inactive: 7.6% [at 75.8 µM] |
| CCCCC1C(=O)N(c2ccccc2)N(c2ccc(O)cc2)C1=O (stereo unspecified) | inactive |
| Cc1cnc(-n2ncc(C(=O)NCCc3cccnc3)c2C)nc1-c1ccc(F)cc1 | inactive: 2.35% |
| Cc1noc(C)c1-c1nc(NCc2cccs2)c2ccccc2n1 | inactive: 18.2% |
| O=c1cc(-c2ccc(O)cc2)oc2cc(OC3OC(CO)C(O)C(O)[C@H]3O[C@@H]3OC[C@@](O)(CO)C3O)cc(O)c12 (stereo partly specified) | inactive: 17.3% |
| COc1ncc2nc(-c3cccs3)c(=O)n(Cc3cccs3)c2n1 | inactive: 7.29% |
| CCOC(=O)c1c(C)cc(OC)cc1O | inactive: 7.72% |
| C[C@]12CCC3c4ccc(O)cc4CCC3C1CCC2=O (stereo partly specified) | inactive: 9.36% |
| COc1cccc(Nc2ncc3ncc(=O)n(C)c3n2)c1 | inactive: 9.09% |
| CS(=O)(=O)Nc1cccc(-c2cc(NCc3ccccc3)ncn2)c1 | inactive: -0.881% |
| COc1cc(C=O)cc(OC)c1[N+](=O)[O-] | inactive: 12.4% |
| CCN(CC)CCOCCOC(=O)C1(c2ccccc2)CCCC1 | inactive |
| Cc1ncc2c(c1CNC(=O)c1ccccc1F)CCN(C(=O)c1ccc3c(c1)OCCO3)C2 | inactive: 11% |
| C[C@@H]1C[C@H]2[C@@H]3CCC4=CC(=O)C=C[C@]4(C)[C@@]3(F)[C@@H](O)C[C@]2(C)[C@H]1C(=O)CO | inactive: 9.7% |
| COc1ccc(Oc2ncc3ncc(=O)n(Cc4cccs4)c3n2)cc1 | inactive: -7.1% |
| COC(=O)N1CCC2(CCN(C(=O)Nc3cccc(F)c3)CC2)CC1 | inactive: 13.1% |
| CC(C)C[C@@H](NC(=O)OCC1c2ccccc2-c2ccccc21)C(=O)O | inactive: 11.6% |
| O=c1[nH]ccc2c(O)cccc12 | inactive: 13.5% [at 75.8 µM] |
| CC(C)(CO)[C@@H](O)C(=O)NCCC(=O)O | inactive: 28% |
| COc1cccc(CN2CCc3nnc(CCc4ccccc4)n3CC2)c1OC | inactive: 2.72% |
| Cc1cc(C(C)(C)C)cc(C)c1CC1=NCCN1 | inactive |
| CC[C@]1(O)C[C@@H]2CN(CCc3c([nH]c4ccccc34)[C@@](C(=O)OC)(c3cc4c(cc3OC)N(C)C3[C@]45CCN4CC=C[C@](CC)(C45)[C@@H](OC(C)=O)[C@]3(O)C(=O)OC)C2)C1 (stereo partly specified) | inactive: 13.2% [at 75.8 µM] |

Reference: PubChem BioAssay AID1645882 (National Center for Advancing Translational Sciences (NCATS), 2021)
